Test results reported in patent US20240317847A1 (Bayer, published 2024).

T1: human IL-11 (human, UniProt P20809 22-199)
T1 construct: Invigate recombinant protein; biotinylated when immobilized in the Di-complex ELISA; also called hIL11; hIL-11
T1 sequence: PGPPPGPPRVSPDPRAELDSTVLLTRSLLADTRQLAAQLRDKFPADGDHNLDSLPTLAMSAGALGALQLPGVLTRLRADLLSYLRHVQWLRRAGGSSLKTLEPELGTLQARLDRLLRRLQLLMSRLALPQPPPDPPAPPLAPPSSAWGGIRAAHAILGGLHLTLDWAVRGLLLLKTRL

T2: murine IL-11 (mouse, UniProt P47873 22-199)
T2 construct: Invigate recombinant protein; biotinylated when immobilized in the Di-complex ELISA; also called mIL11; mIL-11
T2 sequence: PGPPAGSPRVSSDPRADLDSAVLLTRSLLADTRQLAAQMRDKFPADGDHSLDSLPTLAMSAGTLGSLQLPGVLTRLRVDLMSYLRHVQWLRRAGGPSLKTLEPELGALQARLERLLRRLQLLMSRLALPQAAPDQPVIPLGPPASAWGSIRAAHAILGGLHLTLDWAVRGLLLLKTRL


What was measured:
human IL-11 = target: T1, human IL-11; experiment: Tri-complex ELISA, hIL-11 + mIL-11Ra-Fc + hgp130-Fc, inhibition of complex formation
Experimental: In the Tri-complex ELISA format IL-11 antibodies are tested for their ability to inhibit the formation of a complex consisting of murine or human gp130-Fc fusion protein, with murine or human IL-11, and a murine IL11RA-Fc fusion protein. The assay format was adapted according to FIG. 18 (a, b), depending on whether murine or human IL-11 IgG antibodies were tested.
(§1) IgG converted antibodies were subjected to the experimental assay procedure described in Example 19 and IC50 [M], respectively efficacy (%) were calculated accordingly.

murine IL-11 = target: T2, murine IL-11; experiment: Tri-complex ELISA, mIL-11 + mIL-11Ra-Fc + mgp130-Fc, inhibition of complex formation
Experimental: In a first step, 25 μl of goat anti human IgG (Sigma, #12136), diluted 1:1000 in coating buffer (Candor, #121125) was coated on the plate at 4° C. overnight. Next day, the plate was washed one time with 50 μl PBST and then blocked with 50 μl SmartBlock (Candor, #113125) for one hour at room temperature (RT). […] After three additional washes of the coated and blocked microtiter plate with PBS-T, 25 μl of each mixture were added and the assay plate was incubated for one hour at room temperature. After three additional washes, anti-mouse-gp130 biotinylated antibody (R&D, #BAF468) or anti-human gp130 biotinylated antibody (R&D, #BAF228), both 1:1000 in 10% SmartBlock PBS-T, was added and incubated for 1 hour at RT. After three additional washes, a Streptavidin-Peroxidase conjugate (Sigma, #S5512) 1:1000 in SmartBlock PBS-T was added and incubated for one hour at room temperature. After a final three washes, AmplexRed (Fisher Scientific, A12222), 1/1000 in PBS, 0,003% H₂O₂, was added as substrate and incubated for 15 min at RT in the dark. Then, the fluorescence was measured with a plate reader at 535/595 nm. Signals from dose responses were used to calculate IC50 values using GraphPad Prism software. Efficacy was calculated as [(signal measured at lowest antibody concentration−signal measured at the highest antibody concentration)×100] divided by (signal measured at lowest antibody concentration−signal measured in the absence of antibody at an IL11 concentration of 8.2E-11 [M]).
as §1

Row | Efficacy (%) (human IL-11) | IC50 (human IL-11) [nM] | Efficacy (%) (murine IL-11) | IC50 (murine IL-11) [nM] | Binder
1 | 85.4 | 7.4 | 102 | 0.1 | TPP-30003 (antibody, human IgG1, lambda, hIgG1, Lambda (HS variant)) heavy: QVQLVESGGGVVQPGRSLRLSCAASGFTFSHYDMHWVRQAPGKGLEWVAVISYEGSVKFYADSVKGRFTISRDNSKNTLYLQMNSLRAEDTAVYYCARTPGFHFDYWGQGTLVTVSSASTKGPSVFPLAPSSKSTSGGTAALGCLVKDYFPEPVTVSWNSGALTSGVHTFPAVLQSSGLYSLSSVVTVPSSSLGTQTYICNVNHKPSNTKVDKKVEPKSCDKTHTCPPCPAPPVAGPSVFLFPPKPKDTLMISRTPEVTCVVVGVSHEDPEVKFNWYVDGVEVHNAKTKPREEQYNSTYRVVSVLTVLHQDWLNGKEYKCKVSNKQLPSPIEKTISKAKGQPREPQVYTLPPSRDELTKNQVSLTCLVKGFYPSDIAVEWESNGQPENNYKTTPPVLDSDGSFFLYSKLTVDKSRWQQGNVFSCSVMHEALHNHYTQKSLSLSPGK light: QSVLTQPPSASGTPGQRVTISCSGSSSNIGSNYVNWYQQLPGTAPKLLIYYDDLRPSGVPDRFSGSKSGTSASLAISGLRSEDEADYYCSAWDDSLSGVVFGGGTKLTVLGQPKAAPSVTLFPPSSEELQANKATLVCLISDFYPGAVTVAWKADSSPVKAGVETTTPSKQSNNKYAASSYLSLTPEQWKSHRSYSCQVTHEGSTVEKTVAPTECS
2 | 86 | 5.7 | 98.8 | 0.12 | TPP-30000 (antibody, human IgG1, lambda, hIgG1, Lambda (HS variant)) heavy: QVQLVESGGGVVQPGRSLRLSCAASGFTFSHYDMHWVRQAPGKGLEWVAVISYSGSVKFYADSVKGRFTISRDNSKNTLYLQMNSLRAEDTAVYYCARTPGSHFDYWGQGTLVTVSSASTKGPSVFPLAPSSKSTSGGTAALGCLVKDYFPEPVTVSWNSGALTSGVHTFPAVLQSSGLYSLSSVVTVPSSSLGTQTYICNVNHKPSNTKVDKKVEPKSCDKTHTCPPCPAPPVAGPSVFLFPPKPKDTLMISRTPEVTCVVVGVSHEDPEVKFNWYVDGVEVHNAKTKPREEQYNSTYRVVSVLTVLHQDWLNGKEYKCKVSNKQLPSPIEKTISKAKGQPREPQVYTLPPSRDELTKNQVSLTCLVKGFYPSDIAVEWESNGQPENNYKTTPPVLDSDGSFFLYSKLTVDKSRWQQGNVFSCSVMHEALHNHYTQKSLSLSPGK light: QSVLTQPPSASGTPGQRVTISCSGSSSNIGSNYVNWYQQLPGTAPKLLIYYDDLRPSGVPDRFSGSKSGTSASLAISGLRSEDEADYYCSAWDDSLSGVVFGGGTKLTVLGQPKAAPSVTLFPPSSEELQANKATLVCLISDFYPGAVTVAWKADSSPVKAGVETTTPSKQSNNKYAASSYLSLTPEQWKSHRSYSCQVTHEGSTVEKTVAPTECS
3 | 81 | 11 | 99.7 | 0.11 | TPP-30001 (antibody, human IgG1, lambda, hIgG1, Lambda (HS variant)) heavy: QVQLVESGGGVVQPGRSLRLSCAASGFTFSHYDMHWVRQAPGKGLEWVAVISYEGSNKFYADSVKGRFTISRDNSKNTLYLQMNSLRAEDTAVYYCARTPGFHFDYWGQGTLVTVSSASTKGPSVFPLAPSSKSTSGGTAALGCLVKDYFPEPVTVSWNSGALTSGVHTFPAVLQSSGLYSLSSVVTVPSSSLGTQTYICNVNHKPSNTKVDKKVEPKSCDKTHTCPPCPAPPVAGPSVFLFPPKPKDTLMISRTPEVTCVVVGVSHEDPEVKFNWYVDGVEVHNAKTKPREEQYNSTYRVVSVLTVLHQDWLNGKEYKCKVSNKQLPSPIEKTISKAKGQPREPQVYTLPPSRDELTKNQVSLTCLVKGFYPSDIAVEWESNGQPENNYKTTPPVLDSDGSFFLYSKLTVDKSRWQQGNVFSCSVMHEALHNHYTQKSLSLSPGK light: QSVLTQPPSASGTPGQRVTISCSGSSSNIGSNYVSWYQQLPGTAPKLLIYYDDLRPSGVPDRFSGSKSGTSASLAISGLRSEDEADYYCSAWDDSLSGVVFGGGTKLTVLGQPKAAPSVTLFPPSSEELQANKATLVCLISDFYPGAVTVAWKADSSPVKAGVETTTPSKQSNNKYAASSYLSLTPEQWKSHRSYSCQVTHEGSTVEKTVAPTECS
